Test results taken from PubChem BioAssay AID1159614 (National Center for Advancing Translational Sciences (NCATS), 2016).
In all, about 45,000 compounds went through this assay and about 65 (0.1%) were called active. Calls follow the shape of the dose curve; as a rule, active = well fitted activation curve with a large enough effect; inconclusive = small, poorly fitted or top-dose-only effect; inactive = no such curve, though single readings can be large or run the other way. The list shows a part of the results.

biological target: Galactocerebrosidase (Homo sapiens) (UniProt P54803); test: A Novel Cell-Based Assay to Identify Small Molecules for B -Galactocerebrosidase; settings: 145M-Twi-hGALC-G270D cells (Twitcher mouse brain line with human GALC G270D), HMU-beta-Gal fluorescence, 48 h; series mostly up to 57.5 µM; activation: at the top concentration; also: 0% is about no effect; nearly all actives have a fitted effect of over 65% in size
Summary of the method: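 Mutant human GALC (G270D), stably expressed in a Twitcher mouse brain cell line lacking endogenous GALC, is measured in live-treated cells via 6-hexadecanoylamino-4-methylumbelliferyl-β-galactoside hydrolysis (0.1 mM final, pH 5.2) with fluorescent detection.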

Chain of UniProt P54803 (P54803 whole entry, looked up): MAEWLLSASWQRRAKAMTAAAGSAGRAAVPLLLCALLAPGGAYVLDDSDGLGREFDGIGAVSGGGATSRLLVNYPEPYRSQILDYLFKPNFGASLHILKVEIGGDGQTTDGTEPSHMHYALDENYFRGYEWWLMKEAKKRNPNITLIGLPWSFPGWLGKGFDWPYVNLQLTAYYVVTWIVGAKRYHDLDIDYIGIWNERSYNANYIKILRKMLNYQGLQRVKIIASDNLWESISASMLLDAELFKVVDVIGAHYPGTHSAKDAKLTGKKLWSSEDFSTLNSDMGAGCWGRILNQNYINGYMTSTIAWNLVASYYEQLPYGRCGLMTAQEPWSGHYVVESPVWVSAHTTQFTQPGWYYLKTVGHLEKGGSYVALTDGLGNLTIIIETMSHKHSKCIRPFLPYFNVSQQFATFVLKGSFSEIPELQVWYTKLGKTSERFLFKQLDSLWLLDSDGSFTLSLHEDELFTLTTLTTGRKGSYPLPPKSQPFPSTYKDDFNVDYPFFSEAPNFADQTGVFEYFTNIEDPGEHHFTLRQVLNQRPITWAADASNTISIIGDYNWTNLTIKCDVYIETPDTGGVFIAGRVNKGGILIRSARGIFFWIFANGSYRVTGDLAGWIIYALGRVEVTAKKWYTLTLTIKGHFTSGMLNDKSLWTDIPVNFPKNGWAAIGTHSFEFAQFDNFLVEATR

activation, inactive:
O=C(CCCCn1c(=O)[nH]c2ccsc2c1=O)N1CCN(c2cccc(Cl)c2)CC1 -11.9%
CCN(CC)CCCNC(=O)Cn1c(-c2cccs2)cc2cc(Cl)ccc21 -16.6%
Cc1ccc(CSc2nc3ccc(NC(=O)COc4ccccc4F)cc3s2)cc1 -4.35%
CCOC(=O)c1c(C)oc2c(Cl)cc(NS(=O)(=O)c3ccc(Cl)c(C)c3)cc12 -12.3%
CCCCN(CCCC)S(=O)(=O)c1ccc2oc(C(=O)NCc3ccccc3)c(C)c2c1 -12.2%
O=C(COCc1cc(-c2ccco2)on1)Nc1ccc(OC(F)(F)F)cc1 -16%
COc1cccc(OC)c1C(=O)Nc1ccc2c(c1)CCCN2S(=O)(=O)c1ccc(C)cc1 -12.3%
Cc1ccc(-c2nc3c(cnn3-c3ccccc3)c(=O)n2-c2ccc(Cl)cc2)cc1 -10.9%
O=C(CNS(=O)(=O)c1ccc(Br)s1)N1CCN(c2ccccc2F)CC1 -13.2%
Cc1nn(CC(=O)N2CCN(c3ccccc3)CC2)c(=O)c2cccn12 -11.3%
Cc1ccc(-n2ncc3c(NCCC4=CCCCC4)ncnc32)cc1C -7.82%
Cc1oc(-c2ccc(Cl)cc2)nc1Cn1c(=O)cc(-c2ccccc2)c2c(C)nn(C)c21 14.1%
Cn1c(C(=O)NCc2cccc(F)c2)cc2cc(S(=O)(=O)N3CCCCC3)ccc21 5.14%
COc1cccc(-c2nc(C(N)=O)c3c(n2)n(-c2ccc4c(c2)OCO4)c(=O)n3C)c1OC -4.27%
CSc1nc2c([nH]c3ccccc32)c(=O)n1-c1ccc(F)cc1 -25%
COc1ccc(-c2onc(C)c2C)cc1S(=O)(=O)N1CCC(C)CC1 7.7%
CCc1ccc(NC(=O)c2ccc(CN3C(=O)C(C)=C(c4ccc(C)cc4)S3(=O)=O)cc2)cc1 -1.57%
CCOc1ccc(-c2cc(C(F)(F)F)c(C#N)c(SCC(=O)Nc3ccccc3)n2)cc1 -9.12%
CC(=O)c1cc(-c2ccccc2)n(CCC(=O)Nc2cc(C)cc(C)c2)c1C -43.3%
COc1ccccc1CCNC(=O)c1cccn1-c1nnc(N2CCCCC2)s1 -22.3%
O=C(Cn1cc(S(=O)(=O)Cc2ccc(F)cc2)c2ccccc21)NCc1ccccc1 2.33%
CCOc1ccccc1NC(=O)CSc1cc(=O)n(CC)c2ccccc12 -19.6%
Cc1ccc(C)c(N2CCN(C(=O)c3c4c(nc5ccccc35)C(=O)N(C3CCCCC3)C4)CC2)c1 -12.2%
COc1ccc(-c2nc(CNS(=O)(=O)c3ccc(F)cc3)cs2)cc1 -9.55%
COc1ccccc1N1CCN(C(=O)c2c3c(nc4ccccc24)C(=O)N(C2CCCCC2)C3)CC1 -7.08%
Cc1cccc(NC(=O)CSc2nc(C)c(Cc3ccccc3)c(=O)[nH]2)c1 -14.7%
C[C@@H]1CN(c2c(F)c(N)c3c(=O)c(C(=O)O)cn(C4CC4)c3c2F)C[C@H](C)N1 -9.9% [at 23.8 µM]
CCCNC(=O)CN1C(=O)c2cccnc2Sc2ccccc21 -8.42%
COc1cc(OC)cc(-n2c(=O)c3ccccc3n(CC(=O)NCCc3ccc(OC)c(OC)c3)c2=O)c1 -6.56%
COc1ccc2cc(CNc3ccc(OC)c(OC)c3)c(=O)n(CC(=O)Nc3ccc(C)cc3)c2c1 -14.1%
O=C(CSc1nc2c(c(=O)[nH]1)CN(Cc1ccc3c(c1)OCO3)CC2)Nc1ccc(F)cc1 -7.01%
O=C(N/N=C/c1ccccc1O)c1ccncc1 -7.85%
CCCOc1cccc(C(=O)Nc2ccc(-c3nc4ccccc4o3)cc2)c1 -19.1%
COc1ccccc1N1CCN(CCCNC(=O)Cn2ncc3c([nH]c4ccccc43)c2=O)CC1 -12.1%
Cc1ccc2ncc3c(-c4ccccc4)nn(CC(=O)NC4CCCCC4)c3c2c1 -7.23%
O=C(CC1NCCNC1=O)Nc1cccc(F)c1 (stereo not given) -10.7%
COc1ccc(NC(=O)CSC2=Nc3ccccc3C3=NC(CCC(=O)NCc4ccco4)C(=O)N23)cc1 (stereo not given) -9.18%
Cc1ccc(NC(=O)Cn2c(=O)oc3cc(S(=O)(=O)N4CCCC4)ccc32)cc1F -4.63%
Cc1nc2ccc(S(=O)(=O)CCC(=O)Nc3ccccc3C)cc2s1 7.46%
CCOC(=O)c1ccc(NC(=O)C2CCCN(c3ncnc4onc(C)c34)C2)cc1 (stereo not given) -7.75%
COc1cccc(C2C(C(=O)Nc3cccnc3)=C(C)Nc3nc(SCc4ccccc4)nn32)c1 (stereo not given) -13.5%
CC(=O)c1cccc(NC(=O)C2=CC(c3ccco3)=NS(=O)(=O)N2C)c1 -11%
COc1ccc(Nc2nnc(-c3ccc(C)c(S(N)(=O)=O)c3)c3ccccc23)cc1 -10.2%
CCc1ccc2nc(N3CCN(C(=O)c4ccco4)CC3)sc2c1 -6.46%
COc1ccc(CCNc2oc(COc3ccc(Cl)cc3)nc2C#N)cc1OC -18.4%
COc1ccccc1CNC(=O)C(=O)NCC(c1ccc2c(c1)OCO2)N1CCOCC1 (stereo not given) -12.7%
CCc1ccc(CN2CCc3nc(Nc4ccc5c(c4)OCCO5)ncc3C2)cc1 -1.94%
CCc1ccc(-c2nc(SCC(=O)NCCOC)c(-c3ccc(C)cc3)[nH]2)cc1 -14.5%
CCc1ccc(CNc2nc3nc(C)c(Cc4ccccc4)c(=O)n3[nH]2)cc1 -20.8%
Cc1cccc2sc(N3CCN(C(=O)c4ccco4)CC3)nc12 -11.3%
Cc1cccc(S(=O)(=O)c2cn(Cc3ccccc3)c3cc(N4CCCC(C)C4)c(F)cc3c2=O)c1 (stereo not given) -11.3%
CCc1cccc(C)c1NC(=O)c1cnn(-c2ccc(F)cc2)c1-n1cccc1 -23.6%
CSc1nn(Cc2cccc(F)c2)c(N(C(C)=O)C(C)=O)c1S(=O)(=O)c1ccccc1 -6.3%
COc1ccc(OC)c(CNCc2c(C(=O)O)n(Cc3ccccc3)c3cc(OC)ccc23)c1 -5.64%
O=C(CN1N=C(c2ccc(Cl)cc2)CCC1=O)NCc1ccc(F)cc1 -11.7%
O=C1Nc2ccccc2Oc2cc(Oc3ccc(Cl)cc3)ccc21 -26.5%
CCC(=O)N1CCc2cc(S(=O)(=O)NC(CC(C)C)C(=O)Nc3ccc(CC)cc3)ccc21 (stereo not given) 1.37%
Clc1ccc(CSc2nc(NCCc3ccccc3)c3ccccc3n2)cc1 4.56%
Cc1cc(NC(=O)C2CCCN(S(=O)(=O)c3cccc4nonc34)C2)ccc1Br (stereo not given) -15.8%
CCOc1ccccc1CNC(=O)CCCN1C(=O)CCn2nc(-c3cccn3C)cc21 -2.77%
Cc1ccc(-c2cc(C(F)(F)F)n3nc(C(=O)Nc4ccc(C#N)cc4)cc3n2)cc1 -16.8%
CCOC(=O)c1c(C)[nH]c(C)c1S(=O)(=O)N1CCCC(C(=O)N2CCN(c3cc(C)ccc3C)CC2)C1 (stereo not given) -13.2%
Cc1ccc(CNC(=O)C2CCN(S(=O)(=O)c3ccc4c(c3)oc(=O)n4C)CC2)cc1 -18.1%
CCc1ccc(-n2nc(C)c3c(C)cc(=O)n(CC(=O)Nc4ccc(OC)c(OC)c4)c32)cc1 -10.8%
Cc1ccc(C)c(CN2C(=O)c3ccccc3S(=O)(=O)c3ccc(C(=O)N4CCOCC4)cc32)c1 14.8%
CCOc1ccc(CNC(=O)Cn2ncc3c(=O)oc4ccc(C)cc4c32)cc1 -14%
COc1ccc(Cl)cc1N(C)C(=O)Cn1cnc2sc(C)c(S(=O)(=O)N3CCN(c4ncccn4)CC3)c2c1=O -9.9%
CCC(CC)C(=O)Nc1ccccc1C(=O)OCc1cc(=O)n2nc(C3CCCCC3)sc2n1 -5.49%
O=S(=O)(c1cccs1)N1CCN(c2ccc(Cl)cc2)CC1 -29%
COc1ccc(Cl)cc1NC(=O)[C@H]1O[C@@H]2OC(C)(C)O[C@@H]2[C@H]2OC(C)(C)O[C@H]21 -13.2%
COc1ccc(C(=O)N2CCCCC2CCN2CCCCC2)cc1 (stereo not given) -9.81%
Cc1cc(F)ccc1NC(=O)C1CCN(S(=O)(=O)c2ccc3c(c2)CCCC(=O)N3)CC1 -3.19%
Cc1cccc(C(=O)Nc2ccc(C(=O)OCc3cc(=O)n4c(C)csc4n3)cc2)c1 -33.6%
CCCCOc1cccc(C(=O)N(Cc2ccc(Br)o2)C2CCS(=O)(=O)C2)c1 (stereo not given) -16%
NC(=O)CSc1oc(-c2cccs2)nc1S(=O)(=O)c1ccc(Br)cc1 -14.1%
CC(C)(C)NC(=O)CSc1nc(-c2ccc(F)cc2)cc(C(F)(F)F)n1 -9.22%
COc1ccc(S(=O)(=O)NCC(c2ccco2)N2CCN(c3ccc(F)cc3)CC2)cc1 (stereo not given) -0.682%
O=C(NCc1ccccc1)c1ccc2c(c1)N(Cc1ccccc1)C(=O)c1ccccc1S2(=O)=O -5.4%
CC(C)c1cnc2c(c1SCC(=O)c1ccccc1)c(=O)n(C)c(=O)n2C 1.17%
COC(=O)c1ccc(NC(=O)N2CCN(c3nnc(C)c4c(C)n(-c5ccccc5)nc34)CC2)cc1 -11.7%
COc1ccc(S(=O)(=O)N2CCN(c3ccccc3)CC2)cc1-c1noc(C)n1 -16%
O=C(Cn1c(=O)c(C(F)(F)F)nc2ccccc21)Nc1ccc(Br)cc1F -12%
Cc1ccccc1Cn1cc(CCC(=O)NCc2cccc(Br)c2)c2ccccc21 -38.3%
Cn1nc(-c2ccccc2F)c2cc(C(=O)Nc3cc(F)ccc3F)sc21 -6.59%
O=C(c1cnc2c(c1)COc1ccccc1-2)c1ccccc1O -15.7%
Cc1cc(C)c(S(=O)(=O)Nc2cc(Cl)c3oc4c(c3c2)C(=O)CCC4)cc1C -0.935%
Cn1c(=O)n(C)c2cc(CNCc3ccccc3)ccc21 -13.7%
Nc1ccc(C(=O)Nc2ccccc2N)cc1 -14.5%
CCOC(=O)Cn1c(=O)n(C2CCCCC2)c2nc(-c3ccc(OC)cc3)nc(C(N)=O)c21 -7.6%
Cc1cc(C)cc(NC(c2nnc(-c3cccc(F)c3)o2)c2ccc(F)cc2Cl)c1 (stereo not given) -17.7%
COc1ccc(Cc2nc3ccc(C(=O)NCCc4ccc(OC)c(OC)c4)cc3o2)cc1 -0.789%
Cc1cccc2c(=O)cc(CSCC(=O)Nc3ccc(Cl)cc3)[nH]c12 -9.02%
CCOc1ccc(C(=O)Nc2ccc(-c3nnc4n3CCCCC4)cc2)cc1OCC -4.86%
Cc1ccc(CNC(=O)C(=O)NCC(c2ccco2)S(=O)(=O)c2ccc(C)cc2)cc1 (stereo not given) 6.56%
Cc1ccc(Cn2c(=O)n(Cc3ccccc3)c(=O)c3c(C)c(C)sc32)cc1 -11.6%
